Source: a compilation of properties of binary mixtures (doi:10.1021/acs.jced.4c00686)
Some of these densities may be calculated back from excess volumes.

Test: xn = mol fraction of the nth substance listed
Conditions: 100 kPa

COC(C)(C)C + CC(C)O
mass density [kg/m3]
Conditions | 293.15 K | 298.15 K
x1 = 0.0471 | – | 771.6
x1 = 0.0998 | 779.5 | –
x1 = 0.1478 | 776.9 | 765.7
x1 = 0.1925 | 774.6 | 763.2
x1 = 0.2487 | 771.7 | –
x1 = 0.2948 | 769.4 | –
x1 = 0.3443 | 767 | –
x1 = 0.3993 | – | 752.4
x1 = 0.4434 | 762.4 | 750.2
x1 = 0.4924 | 760.2 | 747.9
x1 = 0.5393 | – | 745.9
x1 = 0.5935 | 756 | 743.5
x1 = 0.6828 | 752.4 | 739.6
x1 = 0.7408 | 750.2 | –
x1 = 0.7915 | 748.3 | 735.3
x1 = 0.8388 | 746.5 | 733.4
x1 = 0.8944 | 744.4 | 731.3
x1 = 1 | 740.6 | 727.4

CC(C)O + COC(C)(C)C
x2 = 0
Conditions | mass density [kg/m3]
293.15 K | 785.1
298.15 K | 774.4
